Measured values from the supplement of paper PMC11417369.
± gives the standard deviation of the averaged measurements. Some of the results follow.

test system: PfAP2-G AP2 domain (GST-tagged); assay: gcPBM binding intensity (ln(normalized median fluorescence intensity)); higher = stronger DNA binding
Summary of the method: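 Binding of GST-tagged P. falciparum DNA-binding domains, expressed in E. coli and used at about 25 μg on average, was carried out for 1 h in 1× PBS containing 1% milk, 0.2 mg/ml BSA, 0.5% salmon testes DNA and 0.03% Triton X-100. The target was an Agilent 4 × 180k array of primer-extended double-stranded 36-bp intergenic genomic probes plus negative controls, read with Alexa488 anti-GST antibody at 488 nm. Binding intensity is the highest Masliner-normalised natural-log median intensity across replicate spots of either probe orientation.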

Row | Sequence | gcPBM binding intensity (ln)
1 | AAAGGGACATATATATCACACACAAAAATTAGTCCC [CACACA_site8897] | 10.4 ± 0.41
2 | TTATATATGTATTAATGTACATAGTTGAGAAAGGTA [XGTACX_site1511] | 11 ± 0.67
3 | ATGGGACAGATATATACACACATATAAATATAAATA [CACACA_site6684] | 10.3 ± 0.35
4 | GGAAGCTAATTACACACATGCATATTTTTTTTTCAA [TGCATGCA_site548] | 9.94 ± 0.014
5 | ATAATATAGAACAATACATGCAAATGGCTTAAATTT [TGCATGCA_site521] | 9.8 ± 0.22
6 | ATATTTTATATAATAGTGCAAATAATATTAAATAAT | 9.94 ± 0.099
7 | ATTATAATATTTAATTGTACTTGTATTTATTCCAAA [XGTACX_site6417] | 11.3 ± 0.94
8 | TAATAAAAAGTTGAGGTGCATATAGAGTTCTTCTTT [GTGCAC_site9508] | 10.01 ± 0.085
9 | TGCCCTTTGGTTATAACACACATGCACCCGTAAATA [CACACA_site3842] | 10.6 ± 0.63
10 | ATATATATATAATAATGTACTTATAATAGATGTGTA [XGTACX_site4677] | 11.2 ± 0.79
11 | CACATAAAATAAGGTGCATGCAAACGAGAAAATAAA [TGCATGCA_site75] | 10.32 ± 0.014
12 | AATAAATATATTAAAAGTACACAAATATTATTTAAT [XGTACX_site2482] | 11.4 ± 0.76
13 | AAGATTAAACATTGCACACAAAAACATATTTTCTAT [CACACA_site530] | 9.78 ± 0.26
14 | AAAAAAAATATATTACAAAACTTAGGATCCTAATAT [CACACA_negctrl_site470] | 9.79 ± 0.18
15 | AATATATAAGCTGTTCTATTCAAGAATTATATCTTA [CACACA_negctrl_site270] | 9.57 ± 0.11
16 | CAAAGGAAACCTATCTGTACACATATTGGGGGAAAA [XGTACX_site3502] | 11.6 ± 1
17 | AGAAGATTAAACATTGCACACAAAAACATATTTTCT [CACACA_site8072] | 9.98 ± 0.014
18 | TATATATTGCCCTTCACACACACACCGATATATATA [CACACA_site5390] | 10.3 ± 0.22
19 | CGTAAACGATATAAATGTACGAATATCTATATATTA [XGTACX_site8116] | 10.6 ± 0.3
20 | ATAATAAGGTTAAGCACACATATTACATATATAACT [CACACA_site3356] | 10.1 ± 0.19
21 | TATTTCATCTTTTAAGAAGGTACCCATATGTCATAT [GTGCAC_negctrl_site403] | 11.1 ± 0.72
22 | AAAAATATAACCGTTACACACAAAATAATATGAGAA [CACACA_site3773] | 9.935 ± 0.035
23 | TCGTTTCATAATATTGTGCACATATATATTTACAAT | 10.7 ± 0.37

Row | Sequence | gcPBM binding intensity (ln)
24 | GAACGATATATTATATGTACATATATATATATATAT [XGTACX_site394] | 11.2 ± 0.69
25 | TAATCGTTTTATAAATGTACAAAATTGTTATGTTAT [XGTACX_site5147] | 10.6 ± 0.35
26 | GGGGGAAGGTTGAAGGTGCTTGATGGAGAAAAATAT | 10.9 ± 0.6
27 | TTAATACATACATTCACACACACTAAATGTATATTT [CACACA_site4105] | 10.02 ± 0.057
28 | TATGGAACACACCTTAATATGTGATAAAATATGATA [GTGCAC_negctrl_site718] | 10 ± 0.2
29 | GTTATTAAATAATTCACACACATATATATATATATA [CACACA_site2260] | 10.2 ± 0.38
30 | TATTCCTATATACAGCGTACAAAAAATAATATGTAT [XGTACX_site8112] | 11.2 ± 0.86
31 | AAATATTATGTACGCACACACATTTTTGATATATAA [CACACA_site7755] | 11.5 ± 0.88
32 | CGCAACGTGAAAATACGTACACATACATTTTTATAT [XGTACX_site330] | 11.7 ± 0.85
33 | AAACAAGTAATTGTTATTATTATTATATTATTATTA [CACACA_negctrl_site402] | 9.45 ± 0.11
34 | ATAAATTCTATGTATACACACATATATAATATATAT [CACACA_site2689] | 10.2 ± 0.11
35 | AATAGGATATGGTACATTTTTTGTATACTTTTTGTT [CACACA_negctrl_site1804] | 10.7 ± 0.32
36 | AATGAATATTAAAGGAGTACACATAATAAGTAAGAA [XGTACX_site7354] | 11.7 ± 0.99
37 | TATATAAAAATATACACACACAAATGTATTTATATA [CACACA_site4284] | 9.765 ± 0.021
38 | GAAAAAAAAAAAAATACACACAAATTGGTATAGAAT [CACACA_site380] | 9.86 ± 0.11
39 | TTTTTTTTTTTTGAAGTGCATGTTACGATGAACAAA [GTGCAC_site9451] | 10.1 ± 0.54
40 | CTAAAAAGAGAAGTGTGTCCTCAAATTAATATAATT [XGTACX_site1057] | 11.1 ± 0.64
41 | TCTTATATAACGAAAGTAAAATAATATGCTAAGCAT [CACACA_negctrl_site668] | 9.59 ± 0.18
42 | ATAAATAATTTATTCACACATACAAAAGTTTACAAA [CACACA_site5666] | 10.02 ± 0.092
43 | TTATTAAATTCTTTATTTAGCATATACAATAAAAGA [CACACA_negctrl_site1420] | 9.72 ± 0.15
44 | AAAATAGAGTTGAATGCACACATACAAATTTTTAGG [CACACA_site9188] | 9.985 ± 0.064
45 | TATTATATTATACATACACACCCATATAATATGTTT [CACACA_site8191] | 10.12 ± 0.035
46 | ATTGTTTTGTAATATGAAAAAATTGTGTAATGTGTC [CACACA_negctrl_site1510] | 10.2 ± 0.11

Row | Sequence | gcPBM binding intensity (ln)
47 | GATTATTTCTAAAAAGTGCATATTTAAAAATCTCCT | 10 ± 0.16
48 | AAAAAATAGAATATGGGTACTAAAAAGATACAAACA [XGTACX_site4464] | 11.1 ± 0.53
49 | AAATTCGTAATAATGTGTACATAACTATACATAATT [XGTACX_site1717] | 11.6 ± 1.1
50 | ATTTATATGAAAATATGTACTTATATAAATTTATTT [XGTACX_site53] | 11.2 ± 0.81
51 | TGGTTTATTTATTAAGTGCATAAATGCAATATATAT | 9.935 ± 0.092
52 | TATTATATATTTAATAGTACATATAAAATAATAAGG [XGTACX_site4823] | 11.1 ± 0.7
53 | TATACAGATGGACACACACACATAAATAAATATATA [CACACA_site4863] | 11.1 ± 0.69
54 | TTTATTTTTAACAGTGCACACATAACTTAATTATAT [CACACA_site8681] | 10.7 ± 0.22
55 | TACTATAACCCACATACACACAAAAAAAAAAAAAAA [CACACA_site4454] | 10.1 ± 0.51
56 | TGTCACCTATTTTTTTGTACGTATGTCCATTTTTTT [XGTACX_site4368] | 11.5 ± 0.86
57 | ATTACAACCACATTGACATGCAAATGTAGAGGGGGA [TGCATGCA_site694] | 11.1 ± 0.71
58 | TATAAATATGTATATGCATGTGGAATATATAATTAA [TGCATGCA_site226] | 10.03 ± 0.078
59 | AAATAAAACAGACACACACACACATACACAAAAAAA [CACACA_site7753] | 10.2 ± 0.23
60 | ATATGAGTATAAAAATGTACGGAGCAACTAAATATA [XGTACX_site620] | 10.7 ± 0.28
61 | TATTCTTACATCACCTCACACATTTAATATTCCTTA [CACACA_site4693] | 9.81 ± 0.13
62 | GTATTATTATTTTATGCATGTACATTGAATTATATT [TGCATGCA_site34] | 11.2 ± 0.81
63 | ATATATATATATCAGAGTACATTCTTTAAAATATAT [XGTACX_site5915] | 11.4 ± 0.86
64 | AGATTTTGAAATTATAAAAAAATTTCACTTCATTTA [CACACA_negctrl_site888] | 9.46 ± 0.18
65 | TTTATGTAATATACATGTACAGAATATAAAATATAT [XGTACX_site6906] | 11 ± 0.54
66 | TTAACTTCTTTAAAATGTACATATATTAAATAATAA [XGTACX_site3391] | 11 ± 0.59
67 | AAAAAATATAGATGCACACACAAAAAAACAAATTAA [CACACA_site6718] | 10.1 ± 0.19
68 | TTTTAATTAGAAATCATACACACATATATATATATA [CACACA_site174] | 9.99 ± 0.32
69 | ATTTTTAAAATAAATACATGCATATATTTATATGTT [TGCATGCA_site394] | 9.64 ± 0.14

Row | Sequence | gcPBM binding intensity (ln)
70 | TGTGTAATACATAATACACACATGTATATGTCGCAT [CACACA_site4757] | 10.12 ± 0.092
71 | TTATTAAAGTATAACTGTACATGCGAGTAAAAGAAT [XGTACX_site7388] | 11.2 ± 0.65
72 | TGTTCTAATATTTGTTGTACATTTACATTTCTCTCT [XGTACX_site2585] | 11.1 ± 0.56
73 | ATAATAGAAACAAACAGTACACATACCTAAAAGGAA [XGTACX_site8647] | 11 ± 0.57
74 | AAAAAAAAAGAGGCGTGTACATATATAATTTAAATT [XGTACX_site6827] | 11.2 ± 0.59
75 | ATTTACATAAACGTCTGTACTAATATACAATTTTCT [XGTACX_site1700] | 11.1 ± 0.71
76 | CATAAAATTGTATTTTGTACACATTTTGTATACATT [XGTACX_site5705] | 11.4 ± 0.82
77 | TATATATAGAAACACACACACATATATATATATATT [CACACA_site4115] | 9.89 ± 0.13
78 | TTACTTTAACCTTCTCGTACTTATTTACTTTATTCT [XGTACX_site7801] | 10.7 ± 0.26
79 | ATAACATAGGCAATCACACATATCATTAAGGTGTCA [CACACA_site5233] | 9.85 ± 0.028
80 | ACTGTGGTATAAAGTTGTACATGTTTTTATATATTT [XGTACX_site5257] | 11.4 ± 0.75
81 | TACTTTTATATGAATACACACAGGAATATATATATG [CACACA_site3568] | 10.2 ± 0.17
82 | TTTCAAAGGAAATGGTGTACACAATTTTTCCTTTTT [XGTACX_site2340] | 11.7 ± 0.88
83 | TTTTATTATTCTTCTCTCTTATATATATATATATAT [CACACA_negctrl_site646] | 10.1 ± 0.43
84 | TGATTGTATTAAAATGCACACATATCAAGAGGAATT [CACACA_site7985] | 10.1 ± 0.099
85 | TTAATTTTTTTTTTTTGTACTCATATGTAATTCATC [XGTACX_site3071] | 11.3 ± 0.93
86 | ATTAAAACAAATATGTGTACATAAAAATATATATAT [XGTACX_site8394] | 11.5 ± 0.94
87 | TATTATTATTATTATTTTAAAAGAAATAAAAATATG [XGTACX_negctrl_site119] | 9.98 ± 0.16
88 | GTCTAAAAATAAAAAGTGCATTTGTTTAATATTTTG | 10.13 ± 0.085
89 | ATTTTAATTTTTTAAGTATTATATGAATATTTATTA [TGCATGCA_negctrl_site142] | 9.72 ± 0.071
